ChEMBL document CHEMBL4888484, “Replenishing the malaria drug discovery pipeline: Screening and hit evaluation of the MMV Hit Generation Library 1 (HGL1) against asexual blood stage Plasmodium falciparum ,using a nano luciferase reporter read-out” (2022)
The campaign covered roughly 150,000 compounds. About 540 (0.36%) showed an effect of 50% or more. Some of the results follow.

System: Plasmodium falciparum
Assay: Primary screen in NF54 nanoGlo assay, in single point, at 2uM, 72h; a lower Z score goes with more inhibition
Type: functional, Erythrocyte
Settings: timepoint 72 hour

Row | Structure (SMILES) | % Inhibition [%] | Z score
1 | CNS(=O)(=O)c1ccc(-c2cccs2)c(C(=O)N2CCc3ccccc32)c1 | 9 | -1.68
2 | O=C(NCc1cccc(F)c1)c1ccnc(-c2ccsc2)c1 | -12 | 1.54
3 | CN(Cc1ccccc1)Cc1cncc(-c2ccccc2F)c1 | 31 | -3.86
4 | O=C(Cn1cnc2ccccc2c1=O)N1CCC(n2c(=O)[nH]c3ccccc3c2=O)CC1 | -7 | 0.91
5 | CC1CN(C(=O)c2cc(Br)cnc2N(C)C)CC(C)N1 (stereo not given) | -8 | 1.21
6 | COCCCN(C)C(=O)N1CCC(Nc2nc(C)cs2)CC1 | -15 | 2.08
7 | CCc1ccc(-c2n[nH]c(=O)c3c2CCCC3)cc1S(=O)(=O)N1CCCC[C@@H]1C | -3 | 0.3
8 | CC(C)(C)OC(=O)NC1(c2nnc(-c3ccncc3)o2)CCCC1 | -5 | 0.58
9 | COc1ccc(OC)c(-c2nccn2Cc2sc(C)nc2C)c1 | -13 | 1.49
10 | CC1(CNC2CC(c3cccc(F)c3)C2)OCCCO1 (stereo not given) | -3 | 0.36
11 | C[C@@]1(c2nc(CCc3ccc(OC(F)F)cc3)no2)CCCO1 | -6 | 0.54
12 | Cc1cccc([C@@H](NC(=O)CCCc2cn[nH]c2)C2CC2)n1 | -16 | 1.53
13 | CC(C)C(NC1CCCC(C#N)C1)c1nnc2ccccn12 (stereo not given) | -10 | 1.44
14 | COc1cc2c(cc1OC)[C@H](C1CC1)N(C(=O)CC(C)C)CC2 | -13 | 1.49
15 | Cc1noc(-c2ccccc2OCC(=O)Nc2c(C)n(C)n(-c3ccccc3)c2=O)n1 | 13 | -1.5
16 | CN(Cc1ccsc1)c1ncccc1Cl | -5 | 0.69
17 | c1cc(-c2ccsc2)n2ncnc2n1 | 9 | -1.11
18 | O=C1CCCN1CCN1CCCC[C@H]1c1cccc(F)c1 | 6 | -0.89
19 | CCCCc1nc(CN2CCC[C@@](CO)(CCc3ccccc3)C2)c[nH]1 | -2 | 0.24
20 | CCc1noc(NC(=O)N2Cc3ccccc3[C@@H]2C)n1 | -9 | 0.95
21 | Cc1cc(NC(=O)NCCc2cn[nH]c2)nn1C1CCCCC1 | -7 | 1.35
22 | Cc1cc(NC(=O)C(=O)N(C)[C@@H](C)C(C)(C)C)no1 | 3 | -0.53
23 | C=C(C)CN[C@@H](C)c1sc(CC)nc1C | 2 | -0.32
24 | NC1CCC(C(=O)N(Cc2ccccc2)Cc2ccccc2)C1 (stereo not given) | 3 | -0.55
25 | COc1cc(-n2c(=O)c3ccccc3n(CC(=O)NC[C@H]3CCCO3)c2=O)cc(OC)c1OC | -2 | 0.31
26 | COc1ccc([C@@H]2c3[nH]c4ccc(Cl)cc4c3CCN2C(=O)NC2CCCC2)cc1 | 3 | -0.42
27 | Cc1ccc(NC(=O)NCC(=O)NCC2CC2)nc1 | -2 | 0.24
28 | O=C(CN1C[C@H]2CC[C@@H](C1)N(Cc1ccccc1)C2)N1CCOCC1 | -18 | 2.95

Row | Structure (SMILES) | % Inhibition [%] | Z score
29 | Cc1cnc2c(Cl)c(C(=O)N3CCC4(CCN(C)CC4)C3)nn2c1 | -6 | 0.65
30 | COCCN1CCC(CN(Cc2ccc(C)s2)C[C@H]2CCCO2)CC1 | -24 | 2.15
31 | Cc1ccc(Nc2nc(N)c(C(=O)c3c(C)[nH]c4ccccc34)s2)c(C)c1 | -13 | 1.97
32 | Cc1cc(C)cc(N2CCN(CCc3csc(C)n3)CC2=O)c1 | 11 | -1.76
33 | COCCO[C@H]1[C@H](NC(=O)C(C)C)c2ccccc2C12CCN(Cc1cccc(F)c1F)CC2 | 24 | -3.03
34 | CCCNC(=O)c1c(OCC2CC2)cc(=O)n2c1CCOCC2 | -13 | 2.1
35 | O=C(Cn1c2c(sc1=O)CCCCC2)NCc1ccccc1F | -12 | 1.82
36 | O=C(NCc1cc(Cl)cc2c1OCC2)c1ccncc1 | -26 | 3.33
37 | Cc1nc(C)n([C@@H](C)CNC(=O)c2ccc3c(c2)OCO3)n1 | -42 | 4.92
38 | CN(C)c1cc(NC(=O)C2COC(CCC(=O)O)C2)ccn1 (stereo not given) | -12 | 2.35
39 | CCn1cc(CNc2cc(C)nc(C)n2)cn1 | -10 | 1.14
40 | Cc1nc(C2(C)CCN(S(=O)(=O)c3cc(C)c(C)cc3C)CC2)no1 | -7 | 1.35
41 | CNC(=O)CC1CCN(C(=O)c2c(C)ncn2C)CC1 | -10 | 1.78
42 | Cc1ccc(NCc2c(Cl)cnn2C)cc1N1CCCS1(=O)=O | -11 | 1.5
43 | CCn1nnnc1-c1cccc(NC(=O)N2CCC3C(CCCN3C3CC3)C2)c1 (stereo not given) | -5 | 0.83
44 | O=C(NCCCc1ccccc1)c1cn2c(n1)C(=O)N[C@H](c1ccc(F)cc1)C2 | -11 | 1.23
45 | Cc1c(C(=O)N(C)CCc2nccs2)nnn1CC1CCCC1 | -1 | 0.11
46 | CCc1ncc(C(=O)N2CCN(c3cccc(OC)c3)CC2)s1 | 1 | -0.07
47 | CC1(C)CCCN(C(=O)C2CC=CC2)CC1 | 28 | -3.14
48 | COc1ccc(-c2nn3c(N4CCCCCC4)cc(C)nc3c2C)cc1OC | -8 | 1.59
49 | CN1C[C@@H](O)CNS(=O)(=O)c2ccc(C3CCOCC3)cc2O[C@H]2CN(C3CCCCC3)C[C@H]21 | -12 | 1.79
50 | S=c1[nH]nc(Cn2nnc3ccccc32)o1 | -30 | 3.47
51 | CCn1cncc1CNC(=O)c1ccc(-c2cc(OC)nc(OC)n2)cc1 | 1 | -0.17
52 | Cc1c(NC(=O)c2cncc(Cl)c2)c(N2CCCC2)nn1C | -14 | 1.27
53 | COc1ccc2[nH]cc(CN3CCC[C@@](F)(C(=O)N4CCCC4)C3)c2c1 | -15 | 1.3
54 | N#Cc1cnccc1NC(=O)[C@@H]1C[C@]12CCOc1ccccc12 | -6 | 1.03
55 | Cc1cc(CNCc2cc(Br)c3c(c2)OCO3)no1 | -3 | 0.41
